Assay results reported in the supplement of paper PMC12217912.
The other results are listed elsewhere or left out. Sequences were assembled here from the parent chain. Values near 0.05 are background.

B1: TEV protease; numbered along this chain (parent)
chain: MGESLFKGPRDYNPISSSICHLTNESDGHTTSLYGIGFGPFIITNKHLFRRNNGTLVVQSLHGVFKVKDTTTLQQHLVDGRDMIIIRMPKDFPPFPQKLKFREPQREERICLVTTNFQTKSMSSMVSDTSCTFPSGDGIFWKHWIQTKDGQCGSPLVSTRDGFIVGIHSASNFTNTNNYFTSVPKNFMELLTNQEAQQWVSGWRLNADSVLWGGHKVFMVKPEEPFQPVKEATQL

Variants of: B1
Assay: raw area under fraction-flipped curve 0-4 h after induction (AUC4h, not background-subtracted), DNA-recorder readout of cleavage of the substrate (dimensionless); higher = more cleavage of the substrate by the protease variant
Conditions: temperature: 34 °C; time window: 0-4 h after rhamnose induction
Protocol: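 In vivo DNA recorder in E. coli TOP10(DE3) ΔrhaA at 34 °C. Each TEVp single-site mutant (parent TEVp 0) is paired with a single-site variant of the 7-mer TEVs (canonical ENLYFQ|S). The substrate sits between flexible linkers in a Bxb1-sfGFP-TEVs-SsrA fusion, so cleavage stabilises Bxb1 and speeds flipping of a recombination array, read by NGS. The value is the raw area under the fraction-flipped curve over 0-4 h after rhamnose induction (AUC4h), with ≥20 reads per time point. It is not background-subtracted; inactive controls average about 0.047.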
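Also: Bxb1 expression induced with 0.2% (w/v) L-rhamnose at OD600 near 0.5, cultures sampled hourly, flipped fraction per protease–substrate barcode pair counted by paired-end Illumina sequencing.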

Variant	area with substrate ENLYFAS	area with substrate ENLYFCS	area with substrate ENLYFDS	area with substrate ENLYFES	area with substrate ENLYFFS	area with substrate ENLYFHS	area with substrate ENLYFKS	area with substrate ENLYFLS	area with substrate ENLYFMS	area with substrate ENLYFNS	area with substrate ENLYFPS	area with substrate ENLYFRS	area with substrate ENLYFSS	area with substrate ENLYFTS	area with substrate ENLYFVS	area with substrate ENLYFWS	area with substrate ENLYFYS	area with substrate ENLYFIS	area with substrate ENLYFGS
F218Q	0.053	0.0683	0.0674	0.0579	0.0684	0.0518	0.0678	0.0663	0.0612	0.0693	0.0622	0.0741	0.063	0.0699	0.0788	0.0667	0.0519	–	–
V78H	0.0487	–	–	–	0.0735	–	–	–	–	0.0566	0.0554	0.0549	–	0.0462	–	–	0.0499	0.0653	–
R51Q	0.0617	0.0552	0.0663	0.0736	0.0744	0.059	0.0658	–	0.0778	0.0703	0.0647	–	0.0572	0.0548	0.0615	0.064	0.0647	–	–
N172D	0.0814	0.0705	–	0.0659	0.0681	–	0.0464	–	0.0656	0.0541	–	–	–	0.0597	0.0522	0.0636	–	0.0568	0.065
Q197L	0.0576	–	–	0.0531	0.0718	0.0644	0.0358	–	0.0651	0.0416	0.0706	0.0607	–	0.0678	–	–	0.073	0.0536	–
R50T	0.0606	–	0.056	–	–	–	–	0.0619	0.0766	0.0603	–	–	0.062	0.0593	0.0534	–	0.0658	0.0555	–
F226L	0.0583	0.0469	–	0.0625	0.0604	0.0368	–	0.0659	0.0774	–	0.0679	0.0319	0.0583	0.0644	0.0627	–	–	0.0679	–
I85N	0.0455	0.0519	0.0509	0.0452	0.0502	0.0464	0.0491	0.0446	0.0483	–	0.039	0.0335	0.0467	0.043	–	–	–	0.0412	–
F187S	0.0445	0.0592	–	0.0556	0.0632	–	0.0595	–	0.0544	0.059	0.0597	0.0376	0.0533	0.0584	0.0555	–	0.0788	0.0503	–
H143V	0.0531	0.0544	0.0577	0.0565	0.0639	0.0561	0.0505	–	0.0635	0.0642	0.055	–	–	0.0506	0.0697	0.051	0.0682	0.0576	0.0594
E108W	0.0606	0.055	0.0671	0.0914	0.0557	0.0825	0.0584	0.0781	0.0661	0.061	0.0523	0.0592	0.0523	0.0544	0.0513	0.0517	0.0569	0.0757	0.05
L191W	0.0584	0.0671	0.0548	0.0846	–	–	0.1	0.0694	0.0642	–	–	–	–	0.0712	0.0682	–	0.0623	0.0474	0.0681
Q59E	0.0677	0.0759	0.0552	0.0691	0.078	–	0.0592	–	0.059	0.0456	0.0892	–	0.0507	0.0581	0.0311	0.0552	–	0.0554	0.0453
S171R	0.0652	–	–	–	0.0704	–	–	–	0.065	0.0679	0.0656	0.054	0.0514	0.0521	–	0.0419	–	0.0544	–
T31Y	0.0568	–	0.0526	0.0676	0.0719	0.0618	0.0538	0.0176	0.0841	0.0651	0.0533	0.0602	–	–	–	–	–	0.0657	0.057
Y179H	0.0562	0.0555	0.0726	0.0586	0.0613	–	–	–	0.0667	0.0657	0.0616	0.0353	0.0445	0.0709	–	0.0397	0.0547	0.0591	0.061
V220H	0.0484	0.12	0.0902	0.0623	0.0827	0.0694	0.0663	–	0.0628	0.0052	0.0558	0.0624	0.0648	0.0664	–	0.0502	–	0.0515	–
S130F	0.0378	0.0611	–	0.083	–	–	0.05	0.0639	–	0.0638	0.0502	–	–	0.0789	–	–	–	0.0596	–
L190I	0.0519	–	–	–	0.0739	–	0.055	–	0.0593	–	0.0429	–	–	–	–	–	–	0.0521	–
I15R	0.0657	–	–	–	0.0659	0.0469	0.0575	–	0.0451	0.0516	0.036	–	–	0.0517	–	0.045	–	0.0562	0.0474
I167P	0.0216	–	0.0477	0.0511	0.0501	–	0.0382	–	0.049	–	–	–	–	–	–	–	0.0421	–	–
T174M	0.06	–	–	0.0583	–	–	0.0489	–	0.0777	0.0649	0.0601	–	–	0.0577	–	0.0433	–	0.0604	0.0607
E195I	0.0801	–	–	–	0.053	–	–	–	0.069	0.0629	0.0641	0.0481	0.0451	0.0689	–	–	–	0.0469	–
N24I	0.0544	–	0.0304	0.0649	0.0647	0.0587	0.0721	0.082	0.0736	0.0684	0.0617	0.0613	0.0662	0.0572	–	0.0624	0.0638	0.0575	0.0607
E231S	0.0879	–	–	0.0771	–	0.0646	0.0602	–	0.0488	–	–	–	–	–	0.0692	–	–	–	–
M188K	0.0522	0.0698	0.0656	0.058	0.0651	0.0452	–	–	0.0408	–	0.0665	0.069	0.0431	0.0611	0.0595	0.0559	–	0.0578	0.0569
L191R	0.0413	0.0463	0.0466	0.0603	0.0574	–	–	0.0492	0.0646	0.0408	0.0463	0.0556	0.0626	–	0.0648	0.0443	0.0726	0.0412	–
D79Y	0.0711	–	0.0535	–	–	0.0558	0.0505	–	0.0621	0.0618	0.075	0.0559	0.0618	–	–	–	–	0.07	–
